In PMC12136788:
Some of the results follow.

T1: UNK ZnF1-3 (human, UniProt Q9C0B0 31-174)
T1 sequence: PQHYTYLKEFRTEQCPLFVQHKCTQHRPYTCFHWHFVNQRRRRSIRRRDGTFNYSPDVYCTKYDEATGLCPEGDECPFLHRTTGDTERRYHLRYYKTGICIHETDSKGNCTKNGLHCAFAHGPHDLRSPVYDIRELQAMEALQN

B1: 79847204_79847324_1893_3pUTR_ENSG00000127955_ENST00000351004|human|control|control (ssRNA)
RNA: GGGAGUUCUACAGUCCGACGAUCUAUACAUAUAAUCUAGAUAAGGGCUGUAAUGUUUCCUAAUAUUAAUUACUGUACUUAAAAAUUUACAGGACAUGAACAUAAAUAAAGCUGUUUAAAACUGGCAAACGUAGUAAUAGUCUGCAACAGAGGAUUGAGCAUCA
B2: chr5:137537078:137537079:-_ENSG00000094880_ENST00000394886|hu_hu|FALSE|FALSE (ssRNA)
RNA: GGGAGUUCUACAGUCCGACGAUCAAAUCCAUCAAGUUCUCGAGCUUGGUGUUUUUUGCUGAGCUCCACUCUCAAUUCUCUAAGCGCCUCAUUUUUCACUUGUCCUUUUUCCAGGGGGCCUAAGCUAUCAACUGUUUCAUCGUCCAACAGAGGAUUGAGCAUCA
B3: chr2:187371472:187371473:+_ENSG00000065548_ENST00000337859|hu_hu|FALSE|FALSE (ssRNA)
RNA: GGGAGUUCUACAGUCCGACGAUCACUGGCUACAGUAAUACCUGUUUCAUCUACAUCUCUUGGGAUGUACAGGCUUAAAUCUAUGUCAUUUACACUCACUGAAUCAUCAACCUCAUCACCACCUGUUCCCUGGGUGUAGCGGGUCAACAGAGGAUUGAGCAUCA
B4: chr16:94690093:94690094:+_ENSMUSG00000040785_ENSMUST00000117648|mus_hu|mus_mus_mus_hu_True|58_88 (ssRNA)
RNA: GGGAGUUCUACAGUCCGACGAUCGGGCUGGGAUGACGGACACACAGAUCUUCCCAGAGGGGGAAAAAGUCUUAGUCAAUACUAAUUAAAAAGUGUUAAUGAUUUUUGAAAAUCAGAUUACAUCUAUAAAAGAUGAAAAGCAAACAACAGAGGAUUGAGCAUCA
B5: chr17:24706804:24706805:+_ENSMUSG00000032855_ENSMUST00000035565|mus_mus|FALSE|FALSE (ssRNA)
RNA: GGGAGUUCUACAGUCCGACGAUCGCAAUCUUGCUUGAGAAAAUCCACCUCAGGAGGGCAGGCAUCCUCGAAGGGAGCACUAAUAUUGCCCCCAAACCACUGAGCUGUGGCAGUGGCAUUAGCACCAGAAUCUACCUGAAGCACCAACAGAGGAUUGAGCAUCA
B6: chr4:115894766:115894767:+_ENSMUSG00000028698_ENSMUST00000030464|mus_hu|FALSE|FALSE (ssRNA)
RNA: GGGAGUUCUACAGUCCGACGAUCUUCCACACGGAAAUGUACUUCGGGUUUUCCAACGGCCAGUACCAGUCCGGCCAAACUACCCGAACAGGGUCCUCCCCCUCUCUCCUACAGAACACAACAAAAUGCCCCCGAACUUUCAAGCAACAGAGGAUUGAGCAUCA
B7: chr1:58468927:58468928:-_ENSMUSG00000026034_ENSMUST00000148330|mus_mus|mus_mus_mus_hu_False|8_28 (ssRNA)
RNA: GGGAGUUCUACAGUCCGACGAUCAAUUACUGAAAAAGAUGUUCAUUACCUUAGCUAUGUACUUAAUGAACCAAAUUACCCAAACAAAAUAAACAUGGCAAUAUAAAAAGCUAUACAAUUUACAAAGAUUAAAAGCUUAACUUACAACAGAGGAUUGAGCAUCA
B8: chr5:22955990:22955991:+_ENSMUSG00000029004_ENSMUST00000094962|mus_mus|motif|central (ssRNA)
RNA: GGGAGUUCUACAGUCCGACGAUCUGCAUUGGUAUCCAAAAUACUGGGGCAUGCCAGCCACAGUGCUCAUUGCAAACAUCGGAGUGCAUCCACAAACCCUGUGAUGGUCACACACCAGACACCCGAACCCUGUUAUCGGCUCGACAACAGAGGAUUGAGCAUCA
B9: chr12:39763582:39763583:-_ENSG00000139116_ENST00000544797|hu_mus|hu_hu_hu_mus_False|28_108 (ssRNA)
RNA: GGGAGUUCUACAGUCCGACGAUCCUCUAAGAAUUGGGCAUUCACUUUGAAUUCAGGAGGGGGCAGCCCGUUUUUAAUCGCUGAGGUCUUUUUCUCAUCAAUACUCUUAAAAAGGUGUCUAACAGCACGAGAGAUGAUGCCCUGCAACAGAGGAUUGAGCAUCA
B10: chr12:67699843:67699844:+_ENSG00000111530_ENST00000544619|hu_mus|motif|central (ssRNA)
RNA: GGGAGUUCUACAGUCCGACGAUCAAUAAACUGACCUACUACGGCGGGUCCCUCUUUAGGGCAAGCUCGAGUAAGGGCAGCGGCACAUUUGGCAAUGGAAUAAUAAGACUGCUUAUGAGUGAGAGCAGUGCUCUGAGAAUAAACCAACAGAGGAUUGAGCAUCA
B11: chr7:137662931:137662932:-_ENSMUSG00000030850_ENSMUST00000033139|mus_hu|FALSE|FALSE (ssRNA)
RNA: GGGAGUUCUACAGUCCGACGAUCAGCGGCUGCCCGACUCGUUCUUGCAGUAGCCGCAGCGGUAGAAGUCCUCGCUAGGGAAAUAGUCCACGACGCUGGGCGAACCCCCCGCCCAGAAAGCCAUGGCCUCGGCCCCGCGAACGCCAACAGAGGAUUGAGCAUCA
B12: 25283613_25285330_294_5pUTR_ENSMUSG00000033569_ENSMUST00000126626|mouse|control|control (ssRNA)
RNA: GGGAGUUCUACAGUCCGACGAUCAGAGGCCACUGCCUACUAUGAGGGUAACUGAGGGGGUACCAGAGGAUUCCAUGACUAUUUCUCUAGGUUGCUGAGCCAAAAUGGCGAAGGUAGAGAGCCGAUCACAUAAGCAUUUCGUAUCAACAGAGGAUUGAGCAUCA
B13: chr12:16048344:16048345:+_ENSG00000023734_ENST00000419869|hu_hu|hu_hu_hu_mus_True|58_78 (ssRNA)
RNA: GGGAGUUCUACAGUCCGACGAUCAGAUCGUCCAUAAGUAAUAACCAAAAUCUCUCCCUCAGGAAUAUACUCCAUGCUACUAACAGACAUAUUAAAAUUCAGAGAUUUCACUUCUGUCAUUGUGGCAUGAUCCCAGAGCCGAACCAACAGAGGAUUGAGCAUCA
B14: chr5:174939138:174939139:+_ENSG00000164466_ENST00000321442|hu_mus|FALSE|FALSE (ssRNA)
RNA: GGGAGUUCUACAGUCCGACGAUCACCAACCUUCAGCUCCCUUUGUCUCAUCAGUGGGAUGUUAAUGCAGUUAGCAGCAGCUACAGCAGCGAAGGGAACAAAACGUCCUAUCAGUGGGGAGACACGCUUGGUUAAGGCAUUGAGCAACAGAGGAUUGAGCAUCA
B15: chr1:204375296:204375297:-_ENSG00000158615_ENST00000367188|hu_hu|FALSE|FALSE (ssRNA)
RNA: GGGAGUUCUACAGUCCGACGAUCGCCAACUCAACAUUGCUUGAGAACAUUAAGUCCUUUGAAGCAUGUUCCCUGGAGUCUAUUAAACAUUCUUUCUCUGUGUUCAAAUGUCAAGCAAUAUCCAAUAGCAUCUUCUGUUUCUUGCAACAGAGGAUUGAGCAUCA
B16: chrX:153994619:153994620:+_ENSG00000130826_ENST00000369550|hu_hu|motif|central (ssRNA)
RNA: GGGAGUUCUACAGUCCGACGAUCCCCCACAUACUCUUUGCCUGCACUCUGUUGUGACUUCACCAAGCGAGUGGCUCGUUCGGUGCACACGAUUAAACAACCAGUCACCUUGGGAUCCAGCGUACCACUGUGCCCUGUCUUCUCCAACAGAGGAUUGAGCAUCA
B17: chr7:7679991:7679992:-_ENSG00000106399_ENST00000396682|hu_hu|hu_hu_hu_mus_False|8_18 (ssRNA)
RNA: GGGAGUUCUACAGUCCGACGAUCUGGGAUGAAUCUUUUCCAGCUUCCCCACGAAGCACACGGGCCGGUCGAUAUACUGUGGUAACAUGCUGGCGUUGACGCGCGCUUUGGGGAGCUCCAUCAUGUCCACCAUGAUUCUGCCGCCAACAGAGGAUUGAGCAUCA
B18: chr14:45599971:45599972:-_ENSG00000100442_ENST00000396062|hu_hu|motif|central (ssRNA)
RNA: GGGAGUUCUACAGUCCGACGAUCAUAGGCUGUAACCAAGUGGUCCUUGUUAGCUGUCUUGGCCACAUUUUUAAUGUUUCCGGAUAAUUUAUGUUCUGCAAGAAACGAAUCUGAACCGUGUUCCUGCAGAAACUUGAUAAUGUCCAACAGAGGAUUGAGCAUCA
B19: chr9:127920631:127920632:-_ENSG00000119414_ENST00000456642|hu_mus|FALSE|FALSE (ssRNA)
RNA: GGGAGUUCUACAGUCCGACGAUCAAUACGGUCAGGCCACUUAGCCUUUAGUGCAAGAAGAUAAGUGAAGGUCUCCAAACUAUAGUAACCUCUGUCUACAAAAUCACCCAUAAAUAUGUAGUUUGUGUCAGGAACCUGACCUCCCAACAGAGGAUUGAGCAUCA
B20: chr17:62496344:62496345:-_ENSG00000108654_ENST00000581693|hu_hu|FALSE|FALSE (ssRNA)
RNA: GGGAGUUCUACAGUCCGACGAUCCCCAAAAUCUCUUUUAAGCAGGCUAGAGUAACCUCUGUCAUAAUUUUCCCUGUCUCUAAAGGUAUUAAAUCCACCCCUUUUGCCCGCAGAGUAUCUGUCCCGACGGUCAUCCUUCAUGCCCAACAGAGGAUUGAGCAUCA
B21: chrX:20248510:20248511:+_ENSMUSG00000001924_ENSMUST00000001989|perfect_dup|motif|central (ssRNA)
RNA: GGGAGUUCUACAGUCCGACGAUCGACCUGACUGACGAUGCCUCCACGGAUGUAGUCAGAGAAGUUGGAAGUGUCACAGAUACGGAAGGUAUAAGGACCCAGCACUUUGAUCUCCAUGGGCUGACAUCCAUUGAGUUGGAUCAUCAACAGAGGAUUGAGCAUCA
B22: chr15:79189513:79189514:+_ENSG00000185787_ENST00000426013|hu_hu|FALSE|FALSE (ssRNA)
RNA: GGGAGUUCUACAGUCCGACGAUCCUUUUAUUUUUUCUCUGUUUAAAAUCAAACAGAAAACAAACAUCAAUUGUUAUACACUAACAUCUUCAAAGCACAUCGUUUGUACAAGAGAUAGACUAAGAACAAAAAUGUGUUUACGGACAACAGAGGAUUGAGCAUCA

Target: T1, UNK ZnF1-3
Test: nsRBNS (natural sequence RNA bind-n-seq); RBNS binding buffer (assumed for nsRBNS): 25 mM Tris pH 7.5, 150 mM KCl, 3 mM MgCl2, 0.01% Triton X-100, 500 ug/ml BSA, 20 U/ml SUPERase-In, 4 C; UNK is unkempt and MSI1 is Musashi-1; names of the RNAs are library labels; protein concentration not given here; high values mean tight binding

Binder	binding signal [enrichment R]
B1	1.58
B2	0.532
B3	0.618
B4	1.62
B5	1.5
B6	1.06
B7	0.759
B8	1.26
B9	2.01
B10	1.23
B11	0.741
B12	1.45
B13	0.849
B14	1.78
B15	0.603
B16	0.853
B17	0.87
B18	0.508
B19	1.06
B20	0.882
B21	0.457
B22	0.359
